Viability of KB3-1 and Nalm-6 cells after 48 h of drug alone (CellTiter-Glo), 11 doses over about 4.5 log units. % of DMSO wells, lower = more cell loss; AC50 from the fitted curve, lower = more potent. No active / inactive call. Nalm-6 was screened in two runs. AC50 is listed only for well-fitted inhibitory curves. KB3-1 is a HeLa-derived carcinoma line, Nalm-6 a B-cell precursor leukaemia line.
Columns and labels:
KB3-1 = assay: viability (% of DMSO control); higher = more viable cells
Experimental: (§1)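 Eleven-dose screen of the NCATS MIPE 3 library on cells without co-treatment; CellTiter-Glo after 48 h, as % of DMSO wells.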

Nalm-6 [1] = assay: as above
Experimental: as §1

Nalm-6 [2] = assay: log AC50 of viability decrease (48 h) (log10 M); higher = less potent
Experimental: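 Eleven-dose screen of the NCATS MIPE 3 library on cells without co-treatment; CellTiter-Glo after 48 h. AC50 from the curve fit; only inhibitory curves of the better fit classes are listed.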

| Compound | viability (KB3-1; 0.00078 µM) [%] | viability (KB3-1; 0.00234 µM) [%] | viability (KB3-1; 0.00702 µM) [%] | viability (KB3-1; 0.0211 µM) [%] | viability (KB3-1; 0.0632 µM) [%] | viability (KB3-1; 0.19 µM) [%] | viability (KB3-1; 0.569 µM) [%] | viability (KB3-1; 1.71 µM) [%] | viability (KB3-1; 5.12 µM) [%] | viability (KB3-1; 15.4 µM) [%] | viability (KB3-1; 46.1 µM) [%] | viability (Nalm-6 [1]; run: 1, 0.00078 µM) [%] | viability (Nalm-6 [1]; run: 1, 0.00234 µM) [%] | viability (Nalm-6 [1]; run: 1, 0.00702 µM) [%] | viability (Nalm-6 [1]; run: 1, 0.0211 µM) [%] | viability (Nalm-6 [1]; run: 1, 0.0632 µM) [%] | viability (Nalm-6 [1]; run: 1, 0.19 µM) [%] | viability (Nalm-6 [1]; run: 1, 0.569 µM) [%] | viability (Nalm-6 [1]; run: 1, 1.71 µM) [%] | viability (Nalm-6 [1]; run: 1, 5.12 µM) [%] | viability (Nalm-6 [1]; run: 1, 15.4 µM) [%] | viability (Nalm-6 [1]; run: 1, 46.1 µM) [%] | viability (Nalm-6 [1]; run: 2, 0.00078 µM) [%] | viability (Nalm-6 [1]; run: 2, 0.00234 µM) [%] | viability (Nalm-6 [1]; run: 2, 0.00702 µM) [%] | viability (Nalm-6 [1]; run: 2, 0.0211 µM) [%] | viability (Nalm-6 [1]; run: 2, 0.0632 µM) [%] | viability (Nalm-6 [1]; run: 2, 0.19 µM) [%] | viability (Nalm-6 [1]; run: 2, 0.569 µM) [%] | viability (Nalm-6 [1]; run: 2, 1.71 µM) [%] | viability (Nalm-6 [1]; run: 2, 5.12 µM) [%] | viability (Nalm-6 [1]; run: 2, 15.4 µM) [%] | viability (Nalm-6 [1]; run: 2, 46.1 µM) [%] | log AC50 of viability decrease (Nalm-6 [2]; run: 1) | log AC50 of viability decrease (Nalm-6 [2]; run: 2) |
| --- | --- | --- | --- | --- | --- | --- | --- | --- | --- | --- | --- | --- | --- | --- | --- | --- | --- | --- | --- | --- | --- | --- | --- | --- | --- | --- | --- | --- | --- | --- | --- | --- | --- | --- | --- |
| O=C(Oc1ccc([N+](=O)[O-])cc1)N1CCC(C(O)(c2ccc3c(c2)OCO3)c2ccc3c(c2)OCO3)CC1 [JZL-184] | 114 | 105 | 97.5 | 105 | 105 | 107 | 106 | 105 | 103 | 106 | 102 | 128 | 124 | 109 | 128 | 119 | 128 | 119 | 114 | 111 | 102 | 85.3 | 102 | 109 | 110 | 105 | 107 | 106 | 87.4 | 53.7 | 61.3 | 27.7 | 5.22 | -4.73 | -5.28 |
| NC(CO)(CO)CCc1ccc(Sc2cccc(OCc3ccccc3)c2)cc1Cl [KRP 203] | 108 | 106 | 109 | 111 | 108 | 106 | 109 | 108 | 106 | 106 | 2.74 | 111 | 112 | 115 | 114 | 112 | 114 | 116 | 110 | 99.4 | 105 | 0.501 | 105 | 101 | 97.7 | 98.9 | 102 | 97.1 | 99.9 | 95 | 92.2 | 78.5 | 1.04 |  | -4.63 |
| O=C/1\C=C(/OC(=C1)/C2=C3SC4=C(SC3=CC=C2)C=CC=C4)N5CCOCC5 [KU-0064] | 92.4 | 93.3 | 94.7 | 90.4 | 94.8 | 96.1 | 95.9 | 94.7 | 98.2 | 96.4 | 52.6 | 99.4 | 111 | 117 | 107 | 110 | 112 | 111 | 105 | 108 | 96.7 | 2.81 | 103 | 110 | 119 | 115 | 107 | 121 | 121 | 121 | 117 | 107 | 4.39 | -4.58 |  |

— the supplement of paper PMC4996465
